In PubChem BioAssay AID493208 (National Center for Advancing Translational Sciences (NCATS), 2011):
Among all 44,000 compounds or so, about 340 (0.77%) were called active. Roughly 5% stayed inconclusive and do not appear here. Calls come from the whole dose curve; as a rule, active = well fitted inhibition curve with a large enough effect; inconclusive = small, poorly fitted or top-dose-only effect; inactive = flat fitted curve, though single readings scatter. Some of the results follow.

Experiment: Acumen qHTS Assay for Inhibitors of the mTORC1 Signaling Pathway in MEF (Tsc2-/-, p53-/-) Cells: Sytravon;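 note: plate controls were DMSO for no effect and rapamycin for full effect; nearly all actives have a fitted effect of over 50% in size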
Conditions: phospho-rpS6 immunofluorescence/PI, 24 h; series mostly up to 38.3 µM; activity change, negative = inhibition: at the top concentration
Outline: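 Readout is phospho-S6 Alexa 488 signal normalized to PI per well, reported as % active cells with thresholds set from rapamycin (7.5 nM) and DMSO controls. Cells: Tsc2-/-, p53-/- MEFs, 24 hrs compound at 37 C; PI cell number serves as viability.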

Activity change, negative = inhibition, inactive:
Cc1ccc(Cl)cc1NC(=O)Cn1c(=O)n(C(C)C)c(=O)c2oc3ccccc3c21 2.33%
CCn1c(CN2CCC(C)CC2)nc2cc(NC(=O)c3ccc([N+](=O)[O-])cc3)ccc21 2.11%
Cc1ccc(-n2nc(-c3ccccc3)c3cnc4cc5c(cc4c32)OCO5)cc1C 0.182%
O=C(O)CCc1ccc(-c2ccccc2)n1-c1ccc(C(=O)O)cc1 -0.0177%
CC(=O)Nc1cccc(NC(=O)CSc2ccc(-c3sc(-c4ccccc4)nc3C)nn2)c1 -21.5%
CCOc1ccc(S(=O)(=O)N2CCC(c3ccncc3)CC2)cc1 -13.3%
COc1cccc(NC(=O)c2oc3ccc(S(=O)(=O)N4CCCCCC4)cc3c2C)c1 3.45%
COC(=O)c1ccccc1NC(=O)c1nn(-c2ccc(OC)cc2)c(=O)c2c1c1ccccc1n2C -9.55%
COc1cccc(NC(=O)C2CCN(S(=O)(=O)c3ccc4[nH]c5c(c4c3)CCCCC5)CC2)c1 2.58%
CCC(C)NC(=O)c1c(C)oc2nc(C)nc(N3CCOCC3)c12 (stereo unspecified) -9.66%
Cc1ccc(NC(=O)c2ccc3snnc3c2)cc1C -0.518%
CCOC(=O)c1ccc(NC(=O)Cn2c3ncccc3c(=O)n2-c2ccc(C)c(C)c2)cc1 7.1%
Cc1cc(C)n(-c2nc(C)c(C)c(=O)n2CC(=O)Nc2cccc([N+](=O)[O-])c2)n1 -0.954%
COc1ccc(-c2cc(C(=O)NCCc3ccc(OC)c(OC)c3)c3c(-c4ccc(F)cc4)[nH]nc3n2)cc1 -6.15%
CC(=O)c1ccc(NC(=O)CC2Oc3ccc(C)cc3NC2=O)cc1 (stereo unspecified) 2.65%
CCOC(=O)Cc1c(C(=O)OCC)nnc2c(-c3ccccc3)c(C)nn12 1.47%
COCCNc1oc(-c2ccc(OC)cc2)nc1C#N 0.558%
CCOC(=O)c1cccc(NC(=O)N2CC=C(c3c[nH]c4ccccc34)CC2)c1 -8.86%
COc1ccc(OC)c(NC(=O)N2CC3CCCN3c3ccccc32)c1 (stereo unspecified) -3.44%
Cc1cc(Nc2ccc(Br)c(C)c2)n2nc(-c3ccco3)nc2n1 13.2%
COc1cccc(N2CCN(c3ncnc4c3c(-c3ccccc3)cn4-c3cccc(C(F)(F)F)c3)CC2)c1 13.2%
CCN(CC)C(=O)Cn1c(=O)n(CCc2ccccc2)c(=O)c2ccccc21 -0.217%
CCCNC(=O)N1[C@H](c2cccs2)[C@@H](C)C(=O)[C@@H](C)[C@@H]1c1cccs1 1.29%
COc1ccc(S(=O)(=O)NCC(c2ccc(N(C)C)cc2)N2CCc3ccccc32)cc1F (stereo unspecified) -15.9%
CCOC(=O)c1ccccc1NC(=O)COC(=O)CC(C)(C)CC1=NS(=O)(=O)c2ccccc2N1 2.28%
Cc1cc(C)n2nc(CNS(=O)(=O)c3ccccc3)nc2n1 -4.07%
